{"source": "PubChem BioAssay AID686978", "about": "(National Center for Advancing Translational Sciences (NCATS), 2013)", "note": "“And” between values parts separate entries of the source, which are not always exact repeats. Equal values may be shown once. The campaign covered roughly 420,000 compounds. About 64,000 (15%) were called active. This list was built around the results that the source calls inconclusive (neither active nor inactive); the mix of calls is not that of the screen. The call rests on the fitted dose curve; in most records, active means well fitted inhibition curve with a large enough effect; inconclusive means small, poorly fitted or top-dose-only effect; inactive means flat fitted curve, though single readings scatter. Potencies of inconclusive entries are left out as doubtful fits. On the % scale 0 is the no-effect control and ±100 the full control effect; potency means the concentration at half of the fitted maximal effect; tags describe the fitted curve by direction and shape.", "data": [{"assay": "qHTS for Inhibitors of human tyrosyl-DNA phosphodiesterase 1 (TDP1): qHTS in cells in absence of CPT; further: nearly all actives have a fitted effect of over 55% in size", "settings": "DT40 Tdp1-/- hTDP1 cells, no CPT, ATP luminescence, 48 h; activity change, negative = growth inhibition: at 46.2 µM (top of the series) unless noted", "in_short": "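Chicken DT40 Tdp1-/- cells complemented with human TDP1, screened without camptothecin (DMSO vehicle only), 400 cells/well. Compounds pin-transferred, cells incubated at 37 °C for at least 48 hr. Growth read as ATP-dependent luminescence (CellTiter-Glo, 30 min at RT).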", "values": [{"smiles": "C=C(C(=O)Oc1c(C(C)(C)C)cccc1C(C)(C)C)c1ccccc1", "activity change, negative = growth inhibition": "inactive: -0.562%"}, {"smiles": "O=C(CSc1ncccn1)Nc1ccc(Cl)c(S(=O)(=O)N2CCOCC2)c1", "activity change, negative = growth inhibition": "inactive: -22.5%"}, {"smiles": "COc1ccc(/C=N/NC(=O)c2cccc(C(=O)N/N=C/c3ccc(OC)cc3)n2)cc1", "Potency": "inconclusive [inhibitor, single point]"}, {"smiles": "Cc1sc(NC(=O)c2ccc3ncsc3c2)c(C(N)=O)c1C", "Potency": "inconclusive [inhibitor, partial curve]"}, {"smiles": "CCn1c(C)nc([N+](=O)[O-])c1Sc1ccc(F)cc1", "Potency": "active: 16.4 µM"}, {"smiles": "NS(=O)(=O)c1ccc(CCNCc2cc(Br)ccc2OCc2ccccc2F)cc1", "Potency": "active: 4.11 µM"}, {"smiles": "CC1Cc2ccccc2N1S(=O)(=O)c1ccc(Cl)nc1", "note": "(stereo not given)", "activity change, negative = growth inhibition": "inactive: -14.7%"}, {"smiles": "Cc1ccc(C)c(N2CCN(C(=O)C3CCCN(c4ncnc5c4nc4n5CCCCC4)C3)CC2)c1", "note": "(stereo not given)", "Potency": "active: 23.1 µM"}, {"smiles": "CC1CCCN(c2nc3c(c(=O)[nH]c(=O)n3C)n2Cc2ccccc2Cl)C1", "note": "(stereo not given)", "Potency": "inconclusive [inhibitor, single point]"}, {"smiles": "COc1cc(Nc2ncc3c(n2)CCN(Cc2cccc(C)c2)C3)cc(OC)c1", "Potency": "active: 3.26 µM"}, {"smiles": "Cn1nnnc1SCCCNCc1cccc(OCc2ccc(F)cc2)c1", "Potency": "active: 23.1 µM"}, {"smiles": "CC(=O)Nc1cccc(Oc2ccc(-c3noc(C)n3)cc2)c1", "activity change, negative = growth inhibition": "inactive: -22.3%"}, {"smiles": "COc1ccc(S(=O)(=O)N(C)CC(=O)Nc2ccc3c(c2)OCO3)cc1OC", "Potency": "inconclusive [inhibitor, single point]"}, {"smiles": "Cc1ccc(S(=O)(=O)N2[C@H](CC(=O)c3cccs3)OC[C@@H]2C(C)C)cc1", "Potency": "active: 18.4 µM"}, {"smiles": "O=C1CCCC2=C1C(c1cccs1)n1nc(SCc3ccccc3F)nc1N2", "note": "(stereo not given)", "Potency": "active: 23.1 µM"}, {"smiles": "COc1ccc(-n2c(C)cc(C3=NNC(=NC4CC4)SC3)c2C)cc1", "Potency": "active: 23.1 µM"}, {"smiles": "Cc1cccc(N2CCN(C(=O)C3CCN(c4ncnc5c4nc4n5CCCCC4)CC3)CC2C)c1", "note": "(stereo not given)", "Potency": "active: 4.11 µM and active: 4.61 µM"}, {"smiles": "O=C(CSc1ccc(F)cc1)NC12CC3CC(CC(C3)C1)C2", "activity change, negative = growth inhibition": "inconclusive: -33.1% [inhibitor]"}, {"smiles": "Cc1ccc2c(c1)C1CC(C)(O2)N(c2cccc(C(=O)NC3CCN(Cc4ccccc4)CC3)c2)C(=O)N1", "note": "(stereo not given)", "Potency": "inconclusive [inhibitor, single point]"}, {"smiles": "CC(/C=C/c1ccccc1F)=N\\NC(=O)c1ccccc1", "Potency": "inconclusive [inhibitor, single point]"}, {"smiles": "CCN(CC)C(=S)SCC(=O)c1ccc(F)cc1", "Potency": "active: 4.11 µM"}, {"smiles": "CCOC(=O)N1CCN(C(=O)c2ccc(Cn3c(=S)[nH]c4ccc(Br)cc4c3=O)cc2)CC1", "Potency": "active: 1.03 µM"}, {"smiles": "CCN(CC)C(=O)C(C)OC(=O)COc1ccc(Cl)cc1Cl", "note": "(stereo not given)", "activity change, negative = growth inhibition": "inactive: -23.2%"}, {"smiles": "CCCN(CCC)C(=O)C(Cc1ccccc1)NS(=O)(=O)c1ccc2c(c1)c(=O)n(C)c(=O)n2C", "note": "(stereo not given)", "Potency": "inconclusive [inhibitor, single point]"}, {"smiles": "N=c1c2c(ncn1CCN1CCOCC1)Oc1cc(O)ccc1C2c1ccccc1", "note": "(stereo not given)", "Potency": "inconclusive [inhibitor, single point]"}, {"smiles": "Cc1ccc(C)c(NC(=O)c2cc(-c3cccnc3)nc3ccccc23)c1", "Potency": "inconclusive [inhibitor, partial curve, poor fit]"}, {"smiles": "Cc1oc2c(C)c3oc(=O)c(CC(=O)N4CCCCC4)c(C)c3cc2c1C", "Potency": "active: 20.6 µM"}, {"smiles": "CC(=O)Nc1ccc(NC(=O)[C@@H](NC(=O)c2ccccc2F)C(C)C)cc1", "activity change, negative = growth inhibition": "inactive: -16.4%"}, {"smiles": "Cc1cc(NC(=O)COc2ccc(Cl)cc2Cl)n(CCC#N)n1", "Potency": "inconclusive [inhibitor, partial curve]"}, {"smiles": "NC(=O)[C@H]1CC2(CC(c3cccc(NC(=O)COc4ccc(Cl)cc4)c3)=NO2)CN1C(=O)CC(c1ccccc1)c1ccccc1", "note": "(stereo not given in full)", "Potency": "inconclusive [inhibitor, single point]"}, {"smiles": "CCOc1nc(N2CCCCC2)nc(-n2cc(-c3ccccc3)nn2)n1", "Potency": "active: 18.4 µM"}, {"smiles": "CC1CCc2c(sc(NC(=O)c3c([N+](=O)[O-])cnn3C)c2C(N)=O)C1", "note": "(stereo not given)", "Potency": "inconclusive [inhibitor, single point]"}, {"smiles": "Nc1ccc(-c2cc3ccccc3c(=O)o2)cc1", "Potency": "inconclusive [inhibitor, single point]"}, {"smiles": "CCOc1ncccc1C(=O)OCC(=O)c1ccc(OC)c(OC)c1", "Potency": "inconclusive [inhibitor, full curve, poor fit]"}, {"smiles": "Cc1ccc(C)c(N2CCN(C(=O)C3CCN(S(=O)(=O)c4c(C)noc4C)CC3)CC2)c1", "Potency": "active: 8.2 µM"}, {"smiles": "Cc1ccc(NS(=O)(=O)c2ccc3c(c2)NC(=O)C(C)C(=O)N3)cc1C", "note": "(stereo not given)", "Potency": "active: 18.4 µM"}, {"smiles": "Cc1c(C(=O)N(C)Cc2ccccc2)oc2c(Cl)cccc12", "Potency": "inconclusive [inhibitor, partial curve]"}, {"smiles": "Nc1nc2n(n1)C(c1ccco1)CC(c1ccc(Cl)c(Cl)c1)N2", "note": "(stereo not given)", "activity change, negative = growth inhibition": "inconclusive: -19.5% [inhibitor]"}, {"smiles": "O=C(Nc1cccnc1)c1ccc(Cl)c(S(=O)(=O)N2CCCCCC2)c1", "Potency": "inconclusive [inhibitor, single point]"}, {"smiles": "COc1ccccc1C(=O)NNC(=S)NC(=O)c1ccco1", "Potency": "active: 7.31 µM"}, {"smiles": "O=c1[nH]c(C2CCN(S(=O)(=O)c3ccc(F)cc3)CC2)nc2c1nnn2Cc1ccc2c(c1)OCCO2", "Potency": "inconclusive [inhibitor, single point]"}, {"smiles": "COc1ccc(OC(C)C(=O)NC2CCCCCCC2)cc1", "note": "(stereo not given)", "activity change, negative = growth inhibition": "inactive: -7.67%"}, {"smiles": "COc1ccc([C@H]2CC(=O)C=C(c3cccc(OC(F)(F)F)c3)C2)cc1", "Potency": "inconclusive [inhibitor, single point]"}, {"smiles": "COc1ccccc1N1CCN(C(=O)C2CCC(Cn3c(=S)[nH]c4ccccc4c3=O)CC2)CC1", "note": "(stereo not given)", "Potency": "inconclusive [inhibitor, single point]"}, {"smiles": "COc1ccnc(Oc2ccc(F)cc2)c1C(=O)N/C=N/OCc1ccc(Cl)cc1Cl", "Potency": "inconclusive [inhibitor, single point]"}]}]}
